Assay results reported in PubChem BioAssay AID1347120 (National Center for Advancing Translational Sciences (NCATS), 2019).
In all, about 390,000 compounds went through this assay and about 930 (0.24%) were called active. Inconclusive means that the source gave no clear call. Such entries were picked first, then a sample of the others. The call rests on the fitted dose curve; in most records, active means well fitted activation curve with a large enough effect; inconclusive means small, poorly fitted or top-dose-only effect; inactive means no such curve, though single readings can be large or run the other way. Potencies beside an inconclusive call are fits to weak or partial responses and may not hold up.

assay: qHTS for Suppressors of FUS Proteinopathy: Primary screen using FUS-linked yeast assay; further: nearly all actives have a fitted effect of over 55% in size; settings: S. cerevisiae FUS-expressing, OD600, 24 h; Potency: growth rescue; series mostly up to 76.6 µM
In short: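 S. cerevisiae expressing FUS from galactose induction served as the toxicity model. Growth after 24hr at 30C, read as absorbance at 600 nm, indicates suppression of toxicity; compounds dosed at several concentrations.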
Potency means the concentration at half of the fitted maximal effect; tags describe the fitted curve by direction and shape.

SMILES	Potency
CCCCCCCCNC(=O)C(CCC(=O)OCc1ccccc1)NC(C)=O (stereo unspecified)	inconclusive: 28.2 µM [activator, single point]
COc1cccc(N2CC(NC(=O)C(c3ccccc3)c3ccccc3)CC2=O)c1 (stereo unspecified)	inconclusive: 25.1 µM [activator, single point]
O=C(COC(=O)/C=C/c1ccccc1Cl)NC1CC1	inconclusive: 28.2 µM [activator, single point]
O=C(Nc1cccc(S(=O)(=O)N2CCCCC2)c1)c1c2c(nc3ccccc13)CCN(Cc1ccccc1)C2	inconclusive: 31.6 µM [activator, single point]
O=S(=O)(c1ccc2c(c1)OCCO2)N1CCC(n2nnc3cc(F)ccc32)CC1	inconclusive: 44.7 µM [activator, single point]
COCCN1C(=O)C(C(=O)OC)CC2=C1CC(C)(C)CC2=O (stereo unspecified)	inactive
N#Cc1cc(Oc2cccc3cccnc23)c(-n2nnc3ccccc32)cc1C#N	inactive
N#Cc1c2n(c(=S)n(-c3ccccn3)c1=O)CCCCC2	inconclusive: 8.91 µM [activator, partial curve, poor fit]
CC1Sc2ccc(S(=O)(=O)N3CCC(C(=O)NCc4ccc(Cl)cc4)CC3)cc2NC1=O (stereo unspecified)	inconclusive: 50.1 µM [activator, single point]
CCOC(=O)N1CCN(c2ncnc3scc(-c4ccc(Cl)cc4)c23)CC1	inconclusive: 20 µM [activator, single point]
CCCCCCCCN1C(=O)[C@H](CC(=O)NCc2cccc3ccccc23)C[C@@]2(C(=O)OC)CCCCC=C12	inconclusive: 10 µM [activator, full curve]
C[C@H](CO)N1C[C@H](C)[C@@H](CN(C)S(=O)(=O)c2cccs2)Oc2c(NC(=O)Nc3ccc4c(c3)OCO4)cccc2C1=O	inconclusive: 14.1 µM [activator, partial curve, poor fit]
N#CCC(=O)Nc1ccc(C(=O)OCC(=O)NC(=O)Nc2ccc3c(c2)OCCO3)cc1	inconclusive: 15.8 µM [activator, partial curve]
Cc1cc(C(=O)N/N=C/c2cc(Br)ccc2OC(=O)c2ccccc2)n[nH]1	inconclusive: 7.08 µM [activator, partial curve, poor fit]
Nn1c(Cc2cccc3ccccc23)nnc1SCc1c(Cl)cccc1Cl	inconclusive: 50.1 µM [activator, single point]
CC(=O)c1ccc(OCCCC(=O)OCc2nnc(-c3ccc(Cl)cc3)o2)cc1	inconclusive: 50.1 µM [activator, single point]
Cc1ccc(-n2c(O)c(/C=N/n3cnnc3)c3ccccc3c2=O)cc1	inconclusive: 31.6 µM [activator, single point]
COc1ccc(C2CC(C)=C(C#N)S(=O)(=O)C2C#N)cc1 (stereo unspecified)	inconclusive: 39.8 µM [activator, single point]
O=C(Cc1c(F)c(F)c(F)c(F)c1F)Nc1nc(-c2ccccc2)cs1	inactive
CCOC(=O)c1noc2ncnc(N3CCN(c4ccccc4OC)CC3)c12	inconclusive: 3.16 µM [activator, full curve]
Cc1nc2c(S(=O)(=O)c3ccccc3)cnn2c(C)c1C	inactive

SMILES	Potency
COc1cc(SC)ccc1C(=O)N1CCN(Cc2ccccc2)CC1	inactive
S=C(NCc1ccccc1)NC1CCSc2ccccc21 (stereo unspecified)	inactive
CC(=O)c1sc(N/N=C\c2cccc(Br)c2)nc1C	inconclusive: 11.2 µM [activator, full curve]
CC1Cc2nc(SCC(=O)N3CCN(c4ccccc4)CC3)n(C)c(=O)c2S1 (stereo unspecified)	inactive
Cc1ccc(CN2CCC(CNc3ncnc4onc(-c5ccc(Cl)cc5)c34)CC2)cc1	inactive
Cc1ccc2oc(-c3ccc(NC(=O)CC(C)C)cc3)nc2c1	inactive
COc1cc(NC(=O)c2ccc(S(=O)(=O)N(C)c3ccccc3OC)cc2)cc(OC)c1	inconclusive: 11.2 µM [activator, partial curve]
COc1ccc(CCn2c(C)cc(C(=O)CN3C(=O)C(=O)N(Cc4ccco4)C3=O)c2C)cc1	inconclusive: 11.2 µM [activator, partial curve]
COc1ccc(-c2csc(NC(C)c3nc4cc(C(F)(F)F)ccc4n3CCOCCO)n2)cc1 (stereo unspecified)	inconclusive: 50.1 µM [activator, single point]
NS(=O)(=O)c1ccc(NC(=S)NC(=O)/C=C/c2cccs2)cc1	inactive
O=C(NNC(=S)NC(=O)c1cn(-c2ccccc2)nc1-c1ccccc1)c1ccncc1	inconclusive: 35.5 µM [activator, single point]
Cc1cc(C(=O)CSc2nc(N)cc(N)n2)c(C)n1CCc1ccc(F)cc1	inconclusive: 25.1 µM [activator, single point]
CC(C)(C)c1ccc(N2C(=O)Cc3c2nc(N)c(C#N)c3N)cc1	inconclusive: 50.1 µM [activator, single point]
Cc1sc2nc(CN(CCc3ccccc3)C(=O)c3ccco3)[nH]c(=O)c2c1C	inconclusive: 11.2 µM [activator, single point]
COC(=O)CC(=O)Cc1nc(N)nc(Nc2ccc(C)c(C)c2)n1	inconclusive: 44.7 µM [activator, single point]
COc1ccc(-n2ncc(C(=O)NCc3ccccc3)c2C2CCN(C(=O)OC(C)(C)C)CC2)cc1	inconclusive: 15.8 µM [activator, single point]
Cc1ccc(S(=O)(=O)NCCCc2ccc3c(c2)[C@]2(CCC[C@@H](OCc4ccccc4)[C@@H]2NC(=O)CCc2ccccc2)C(=O)N3Cc2ccccc2)cc1	inactive
CCOC(=O)c1c(C)[nH]c(N=Nc2ccccc2)c1C	inconclusive: 35.5 µM [activator, partial curve, poor fit]
CCOC(=O)C1CCN(C(=O)C2COc3ccccc3C2)CC1 (stereo unspecified)	inactive
Cc1nc(N)sc1-c1csc(Nc2ccc(Cl)cn2)n1	inconclusive: 17.8 µM [activator, partial curve]
